Reference: PubChem BioAssay AID504832 (National Center for Advancing Translational Sciences (NCATS), 2011)
The campaign covered roughly 310,000 compounds. About 18,000 (5.8%) were called active. Inconclusive results, whose numbers are uncertain, are shown with a selection of clear calls. Calls come from the whole dose curve; as a rule, active = well fitted inhibition curve with a large enough effect; inconclusive = small, poorly fitted or top-dose-only effect, or another doubt; inactive = no such curve, though single readings can be large or run the other way. Potencies of inconclusive entries are left out as doubtful fits.

Test: Primary qHTS for delayed death inhibitors of the malarial parasite plastid, 48 hour incubation
Conditions: P. falciparum luciferase growth in erythrocytes; series mostly up to 28.7 µM; activity change, negative = inhibition: at the top concentration
Summary of the method: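 Read-out is firefly luciferase luminescence from an integrated reporter in P. falciparum, so falling signal marks reduced parasite growth. Infected erythrocytes were at 2% hematocrit and 0.1% parasitemia (final) in Albumax-supplemented RPMI 1640.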
% is set by controls: 0 for no effect and ±100 for the full control effect; potency is the fitted concentration of half-maximal effect; tags give direction and shape of the fitted curve.

Row | SMILES | Potency | activity change, negative = inhibition
1 | CS(=O)(=O)c1ccc(N2CCN(S(=O)(=O)c3cccs3)CC2)c([N+](=O)[O-])c1 | inconclusive [inhibitor, partial curve] | 
2 | COc1ccc(CCn2c(C3CCCCC3)nc3c(c(=O)c4ccccc4n3C)c2=O)cc1OC | active: 3.29 µM | 
3 | Oc1ccccc1N1CCN(c2ncnc3scc(-c4ccc(F)cc4)c23)CC1 | active: 13.1 µM | 
4 | N#Cc1ccc2c(c1)NC(=O)C1CCCN21 (stereo not given) | inconclusive [inhibitor, single point] | 
5 | CC(C)CNc1nc(SCC(=O)Nc2ccccc2)nc(N2CCOCC2)n1 | inconclusive [inhibitor, single point] | 
6 | C=CCNC(=S)NCc1ccccc1OC | inconclusive [inhibitor, single point] | 
7 | Cc1cc(N/N=C/c2ccccc2F)nc(NCc2ccccc2)n1 | inconclusive [inhibitor, single point] | 
8 | Cc1nc2scc(-c3ccccc3)c2c(=O)o1 |  | inactive: 8.1%
9 | O=C(NCc1cccnc1)c1cccc(S(=O)(=O)NCc2ccccc2)c1 | inconclusive [inhibitor, partial curve, poor fit] | 
10 | COc1ccc(CCN(C)CCC(=O)Nc2cccc(C)c2)cc1OC | inconclusive [inhibitor, partial curve, poor fit] | 
11 | Cc1cccc2cc(CN(Cc3ccc(F)cc3)C(=O)C(F)(F)F)c3nnnn3c12 | inconclusive [inhibitor, single point] | 
12 | COc1ccc2cc(C#N)c(SCC(=O)N3CCCC3)nc2c1 |  | inactive: -23.7%
13 | COc1ccc(/C=C(\C#N)C(=O)OCC(=O)NCc2ccccc2Cl)cc1 | inconclusive [inhibitor, single point] | 
14 | O=C(c1cc([N+](=O)[O-])ccc1N1CCOCC1)N1CCN(c2ccc([N+](=O)[O-])cc2)CC1 | inconclusive [inhibitor, single point] | 
15 | COC(=O)Nc1sc2c(c1C(=O)NCc1ccco1)CCC2 | inconclusive [inhibitor, full curve, poor fit] | 
16 | Cc1nn(C)c(C(=O)Nc2ccc(S(=O)(=O)NC34CC5CC(CC(C5)C3)C4)cc2)c1Br | inconclusive [inhibitor, single point] | 
17 | CCOC(=O)C1CCCN(S(=O)(=O)c2cc3c4c(c2)CCC(=O)N4CCC3)C1 (stereo not given) | inconclusive [inhibitor, single point] | 
18 | O=C(c1cc(-c2ccccc2)n[nH]1)N1CCN(S(=O)(=O)c2ccccc2)CC1 | active: 3.7 µM | 
19 | C/C(N)=C(/C#N)C(=O)COC(=O)c1cc(S(=O)(=O)N2CCCCC2)ccc1C | inconclusive [inhibitor, partial curve] | 
20 | OC[C@H]1OC(O)[C@H](O)[C@@H]1O (stereo not given in full) | inconclusive [inhibitor, partial curve, poor fit] | 
21 | COc1cc(-c2nnc(Cn3cc(C(F)(F)F)ccc3=O)o2)cc(OC)c1OC | inconclusive [inhibitor, partial curve] | 
22 | Cc1cc(C)c(C)c(S(=O)(=O)N2CCN(C(=O)c3ccc4c(=O)n5c(nc4c3)CCC5)CC2)c1C | inconclusive [inhibitor, partial curve, poor fit] | 

Row | SMILES | Potency | activity change, negative = inhibition
23 | Cc1ccc(S(=O)(=O)N(c2cc(Cl)c(O)c(Cl)c2)P(=O)(OC(C)C)OC(C)C)cc1 | inconclusive [inhibitor, single point] | 
24 | CC(=O)c1ccc(N2CCN(C(=O)c3n[nH]c4ccccc34)CC2)cc1 | inconclusive [inhibitor, single point] | 
25 | CN(CC(=O)Nc1ccc(F)cc1)C(=O)COc1ncnc2ccccc12 | inconclusive [inhibitor, single point] | 
26 | Cc1nc(N2CCN(c3ccccn3)CC2)c2c(C)c(C(=O)Nc3ccccc3F)sc2n1 | active: 6.57 µM | 
27 | O=C(COc1ccc(S(=O)(=O)N2CCCCC2)cc1)Nc1ccccc1F | active: 11.7 µM | 
28 | C=C(C)c1cccc(C(C)(C)NC(=O)N2CCN(CC(N)=O)CC2)c1 |  | inactive: -19.8%
29 | CC(C)c1cc(NC(=O)C(C)(C)C)cc(C(C)C)c1O | inconclusive [inhibitor, full curve, poor fit] | 
30 | CCOCC(=O)Nc1nnc(SCCOC)s1 |  | inactive: 8.62%
31 | Cc1cccc(CN2CCN(Cc3ccco3)CC2)c1 |  | inactive: 20.5%
32 | OC(CNCCc1ccc(Cl)cc1Cl)COc1ccccc1 (stereo not given) | inconclusive [inhibitor, single point] | 
33 | CCOc1cc(C2C3=C(CCCC3=O)N(CCC(=O)O)C3=C2C(=O)CCC3)ccc1OS(=O)(=O)c1ccc(C)cc1 | inconclusive [inhibitor, partial curve, poor fit] | 
34 | C/C(=N\NC(=O)Cc1ccccc1Cl)c1cccnc1 | inconclusive [inhibitor, partial curve] | 
35 | COc1ccccc1-c1noc2ncnc(Nc3cccc(C)c3C)c12 | inconclusive [inhibitor, single point] | 
36 | COCCNC(=S)NC(=O)c1ccc(C(C)(C)C)cc1 |  | inactive: 35.5% [at 5.75 µM]
37 | COC(=O)[C@]1(CC(C)C)N[C@H](c2ccc(-c3ccc(Cl)c(Cl)c3)cc2)[C@@H]2C(=O)N(C)C(=O)[C@@H]21 | active: 7.38 µM | 
38 | COC(=O)c1ccc(CN2C(=O)NC3(CCCc4ccccc43)C2=O)o1 (stereo not given) | inconclusive [inhibitor, partial curve] | 
39 | O=c1cc(C(F)(F)F)nc(-n2[nH]c3c(c2=O)CCCC3)[nH]1 | inconclusive [inhibitor, single point] | 
40 | O=[N+]([O-])c1ccc(NCCO)c2ncccc12 |  | inactive: 8.87%
41 | O=C(CSc1ccc2nnc(-c3cccnc3)n2n1)Nc1ccccc1 | inconclusive [inhibitor, single point] | 
42 | CN(C)c1cc(NC(=O)CN2CCCC2)c2ccccc2n1 | inconclusive [inhibitor, partial curve] | 
43 | COc1ccccc1N(CC(O)COc1ccccc1)S(=O)(=O)c1ccccc1 (stereo not given) | inconclusive [inhibitor, single point] | 
44 | Cc1ccc(-n2ncc3c2CC(C)(C)CC3NC(=O)c2c(C)noc2C)cc1 (stereo not given) |  | inactive: -18%

Row | SMILES | Potency | activity change, negative = inhibition
45 | COc1ccc(C(C)(C)C)cc1NC(=O)Nc1ccc2c(c1)OCO2 | inconclusive [inhibitor, single point] | 
46 | COc1ccc(NS(=O)(=O)c2cccc(NC(=O)c3ccc(S(=O)(=O)N4CCCCCC4)cc3)c2)cc1 | inconclusive [inhibitor, partial curve, poor fit] | 
47 | O=C(/C=C/c1ccccc1)NC(NC(=S)Nc1ccc(Cl)cc1Cl)C(Cl)(Cl)Cl (stereo not given) | inconclusive [inhibitor, partial curve, poor fit] | 
48 | CC/C(=N/NS(=O)(=O)c1ccc(Cl)cc1)c1ccc(O)cc1 |  | inactive: 14.4%
49 | O=C1NC(=S)N(C(=O)c2ccc(F)cc2)/C1=C/c1cccnc1 | inconclusive [inhibitor, partial curve, poor fit] | 
50 | COc1ccc(NC(=O)c2cccc(N3C(=O)c4ccc(C(=O)Nc5ccc(OC)c(O)c5)cc4C3=O)c2)cc1O | inconclusive [inhibitor, single point] | 
51 | CC1CCCCC1NC(=O)CN1C(=O)NC(C)(c2cc(F)ccc2F)C1=O (stereo not given) | inconclusive [inhibitor, single point] | 
52 | Cc1nn(C)cc1CN1CCCC(C(=O)c2ccc(-c3ccccc3)c(F)c2)C1 (stereo not given) | active: 14.7 µM | 
53 | O=C(Nc1ccc2c(c1)OCCO2)c1cnn(-c2ccccc2)n1 |  | inactive: 318%
54 | CN(C)CC(NC(=O)c1cccc(S(=O)(=O)Nc2ccc3c(c2)OCO3)c1)c1ccccc1 (stereo not given) | inconclusive [inhibitor, partial curve] | 
55 | COC(=O)c1ccc2c(=O)n(CC3CCCO3)c(SCC(=O)Nc3ccccc3OC)nc2c1 (stereo not given) | inconclusive [inhibitor, partial curve, poor fit] | 
56 | CCCN(C(=O)c1cn(-c2ccccc2)nc1-c1ccc(OC)cc1)C1CCS(=O)(=O)C1 (stereo not given) | inconclusive [inhibitor, partial curve, poor fit] | 
57 | S=c1[nH]ccn1-c1c(Cl)cccc1Cl |  | inactive: 38.6%
58 | CCN(CC)c1ccc(NC(=O)c2cc3c(OC)cccc3[nH]2)cc1 | inconclusive [inhibitor, single point] | 
59 | CC(C(=O)NCC1CCCCC1)N(C)Cc1ccc(Cl)cc1 (stereo not given) | inconclusive [inhibitor, single point] | 
60 | CN1CCN(c2ccc([N+](=O)[O-])cc2/C=N/NC(=O)c2cccc([N+](=O)[O-])c2)CC1 | inconclusive [inhibitor, partial curve, poor fit] | 
61 | Cc1ccc(CSCc2ccc(C(=O)NC3CC3)o2)cc1 | active: 1.17 µM | 
62 | CCOC(=O)C1CCN(c2nc(-c3ccc(Br)cc3)cs2)CC1 | inconclusive [activator, full curve] | 
63 | CCCn1c(C)cc(/C=C(\C#N)C(=O)OCC(=O)Nc2ccc(OC)c(Cl)c2)c1C |  | inactive: 7.3%
64 | O=S1(=O)C=C(Sc2nc3ccccc3s2)c2ccccc21 | active: 8.28 µM | 
65 | CC1(CC(=O)N/N=C/c2ccc(OCc3ccc(Cl)cc3Cl)cc2)OCCCO1 | inconclusive [inhibitor, single point] | 
